According to PubChem BioAssay AID1745853 (National Center for Advancing Translational Sciences (NCATS), 2022):
“And” between values parts separate entries of the source, which are not always exact repeats. Equal values may be shown once. The list shows a part of the results. The main result of the screen is listed elsewhere. These columns were measured beside it and carry no call.

Key:
Experiment in all cases: Primary Screen for Target Class Profiling of Small Molecule Inhibitors of Methyltransferases
[1] = biological target: Glycine N-methyltransferase (Homo sapiens) (UniProt Q14749); conditions: purified enzyme, MTase-Glo SAH luminescence; measured here: GNMT inhibition; at 40 µM; stronger effect = lower value
Outline: (§1)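 Each enzyme was assayed with SAM and its substrate. SAH formation detected by MTase-Glo luminescence; single-point 40 uM screen[…].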

[2] = biological target: Guanidinoacetate N-methyltransferase (Homo sapiens) (UniProt Q14353); conditions: purified enzyme, MTase-Glo SAH luminescence; measured here: GAMT inhibition; at 40 µM; stronger effect = lower value
Outline: as §1

[3] = biological target: Histamine N-methyltransferase (Homo sapiens) (UniProt P50135); conditions: purified enzyme, MTase-Glo SAH luminescence; measured here: HNMT inhibition; at 40 µM; stronger effect = lower value
Outline: as §1

[4] = biological target: Nicotinamide N-methyltransferase (Homo sapiens) (UniProt P40261); conditions: purified enzyme, MTase-Glo SAH luminescence; measured here: NNMT inhibition; at 40 µM; stronger effect = lower value
Outline: as §1

[5] = biological target: Phenylethanolamine N-methyltransferase (Homo sapiens) (UniProt P11086); conditions: purified enzyme, MTase-Glo SAH luminescence; measured here: PNMT inhibition; at 40 µM; stronger effect = lower value
Outline: as §1
% is set by controls: 0 for no effect and ±100 for the full control effect.

SMILES	activity change, negative = inhibition [1]	activity change, negative = inhibition [2]	activity change, negative = inhibition [3]	activity change, negative = inhibition [4]	activity change, negative = inhibition [5]
Cc1c(Cl)cccc1NC(=O)N1Cc2ccccc2-n2cccc2C1c1ccccc1 (stereo not given)	10.2%	0%	8.41%	5.13%	8.09%
C[C@]12CC[C@H](OC3OC(CO)C(O)C(O)C3OC3OC(CO)C(O)C(O)C3O)C[C@@H]1CC[C@@H]1C2CC[C@]2(C)[C@@H](C3=CC(=O)OC3)CC[C@]12O (stereo not given in full)	-3.77%	-17.2%	4.16%	-26.9%	-1.96%
CN1CCC(NCC2(CO)C[C@@H](O)[C@@H](O)C2)CC1 (stereo not given in full)	-1.4%	-0.909%	-3.04%	-3.17%	0.421%
CN1CCN(c2nc3ccccc3nc2Cl)CC1	0.58%	0.191%	10.9%	-7.37%	6.96%
CCOC(=O)CNC(=O)N1Cc2ccccc2-n2cccc2C1c1ccc(SC)cc1 (stereo not given)	-1.84%	1.71%	0.791%	-3.96%	3.21%
CCCCCOc1cc2c(cc1-c1cc(/C=C/C(=O)O)ccc1O)C(C)(C)CCC2(C)C	-10.5%	-18.9%	7%	-63.2%	2.04%
Cn1cnc(S(=O)(=O)N2[C@H]3CC[C@@H]2c2cnc(-c4ccccc4)nc2C3)c1	-3.55%	-6.25%	-1.93%	-4.27%	1.3%
CC(N)c1cccc(Cl)c1Cl (stereo not given)	-8.45%	4.62%	-44.4%	-6.16%	-98.7%
O[C@@H]1CNC2Cc3c([nH]c4ccccc34)C1C2 (stereo not given in full)	-6.96%	-2.27%	-3.75%	-1.24%	-12.5%
CC[C@H]1C2CC3[C@@H]4N(C)c5ccccc5[C@]45C[C@@H]([C@H]2[C@H]5O)N3[C@H]1O	2.56%	3.86%	7.26%	-12.1%	3.41%
Cc1ccc(NC(=O)N2Cc3ccccc3-n3cccc3C2c2ccccc2Cl)cc1C (stereo not given)	12.2%	0%	5.29%	0.751%	6.14%
O=C(NCc1ccc(F)cc1)N1Cc2ccccc2-n2cccc2C1c1cccc(Cl)c1 (stereo not given)	9.79%	4.62%	1.07%	-3.19%	1.53%
C[C@]12CC[C@@H](O)C[C@H]1CC[C@@H]1[C@@H]2CC[C@]2(C)C(=O)CC[C@@H]12	6.07%	11%	6.8%	-9.2%	0.803%
CCOCCCNC(=O)N1Cc2ccccc2-n2cccc2C1c1ccc(Cl)cc1 (stereo not given)	-2.04%	4.07%	7.71%	-0.56%	9.1%
CCC1(N2CCN(C(=O)COc3ccc(Cl)cc3C)CC2)CCN(C(=O)NC)C1 (stereo not given)	-5.62%	-0.224%	-3.94%	-6.95%	10.9%
CCC(C)C1NC(=O)C(C(C)=O)=C1O (stereo not given)	0%	-7.5%	-4.01%	-20.4%	-7.6%
COc1ccc(NC(=O)N2Cc3ccccc3-n3cccc3C2c2ccc(C)cc2)c(OC)c1 (stereo not given)	8.94%	5.91%	8.52%	1.43%	5.46%
CC(=O)NCCc1c[nH]c2ccccc12	-0.915% and 0.677%	0.938% and 8.46%	5.66% and 8.3%	-14.5% and -6.87%	3.62% and 0.552%
C[C@@H]1[C@H](O)[C@@H](C)/C=C/C=C/CC/C=C/C=C/C=C/C=C/[C@H](O[C@H]2O[C@@H](C)[C@H](O)[C@@H](N)[C@H]2O)C[C@@H]2O[C@](O)(C[C@@H](O)[C@H](O)CC[C@@H](O)C[C@@H](O)C[C@@H](O)CC(=O)O[C@H]1C)C[C@H](O)[C@H]2C(=O)O	-2.99%	-8.5%	6.72%	-12%	-0.424%
COc1ccc(NC(=O)N2Cc3ccccc3-n3cccc3C2C(C)C)cc1OC (stereo not given)	-2.16%	0.369%	3.81%	7.43%	6%

SMILES	activity change, negative = inhibition [1]	activity change, negative = inhibition [2]	activity change, negative = inhibition [3]	activity change, negative = inhibition [4]	activity change, negative = inhibition [5]
COc1ccc(C2c3cccn3-c3ccccc3CN2C(=O)Nc2ccc(C)cc2C)cc1 (stereo not given)	7.79%	1.22%	-1.4%	-4.61%	0.118%
CCC1C2CC3C4N(C)c5ccccc5C45CC(C2C5O)N3C1O (stereo not given)	3.08%	4.46%	8.72%	-10.1%	3.91%
O=C(O)C1=NOC2CN(Cc3cncs3)CC12 (stereo not given)	-8.74%	-10.5%	-5.24%	-16%	-11.3%
Nc1ccc(CCN2CCN(c3cccc(C(F)(F)F)c3)CC2)cc1	-2.62%	10.6%	8.83%	-11.8%	-2.25%
CCOC(=O)Cc1ccc(NC(=O)N2Cc3ccccc3-n3cccc3C2c2ccc(CC)cc2)cc1 (stereo not given)	11.7%	3.5%	7.89%	8.75%	10.2%
COc1ccc(-c2cc3c(cn2)CN(C)CCN3)cn1	-10.7%	-6.16%	-73.3%	-16.4%	-4.22%
CC1=C2C[C@H]3[C@@H](CC=C4C[C@@H](O)CC[C@@]43C)[C@@H]2CC[C@]12O[C@@H]1C[C@H](C)CN[C@H]1[C@H]2C	4.29%	8.6%	6.39%	-7.84%	0.505%
CCc1ccc(C2c3cccn3-c3ccccc3CN2C(=O)NCCC(C)C)cc1 (stereo not given)	5.48%	0%	1.18%	-2.31%	3.9%
NC(C(=O)O)c1cc(=O)[nH]o1 (stereo not given)	2.21%	6.88%	6.98%	-8.01%	-5.87%
CCC1c2cccn2-c2ccccc2CN1C(=O)Nc1cc(Cl)c(OC)cc1OC (stereo not given)	0.032%	0%	-0.468%	0.826%	5.6%
COc1ccc2c(C(=O)c3ccc(Cl)cc3)c(C)n(CC(=O)O)c2c1	-1.99%	4.52%	10.1%	-11.2%	3.35%
Cc1ccc(C)c(NC(=O)N2Cc3ccccc3-n3cccc3C2c2cccc(Cl)c2)c1 (stereo not given)	13.7%	0%	6.87%	5.98%	4.83%
CCOc1ccc(Oc2ccc(OCc3cc(F)ccc3F)cc2)c(N)c1	1.93%	3.25%	10.8%	-16.7%	3.64%
COc1ccc(C2c3cccn3-c3ccccc3CN2C(=O)Nc2ccccc2)cc1 (stereo not given)	4.08%	0.092%	-0.631%	-3.26%	3.1%
CCc1ccc(NC(=O)N2Cc3ccccc3-n3cccc3C2C(C)C)cc1 (stereo not given)	0.784%	0%	10.1%	9.58%	7.27%
COc1cccc(CNC(=O)N2Cc3ccccc3-n3cccc3C2c2ccccc2)c1 (stereo not given)	4.08%	0.246%	-2.35%	-6.29%	0.689%
Cc1cccc(C2c3cccn3-c3ccccc3CN2C(=O)Nc2cccc(C)c2C)c1 (stereo not given)	7.59%	0.677%	-1.59%	-1.06%	3.6%
CCOC(=O)Cc1ccc(NC(=O)N2Cc3ccccc3-n3cccc3C2C(C)C)cc1 (stereo not given)	-1.06%	4.48%	-0.439%	-1.64%	0.444%
CCCN1CC[C@@H]2c3cc(O)ccc3CC[C@@H]21	-1.8%	8.08%	-70%	-9.26%	-2.17%
